Measured values as given in the supplement of paper PMC10126150.
Values marked as one replicate rest on one cluster of the flow cell; about a third of the high ones do not repeat.

system: ATP; assay: switch fluorescence ratio, 500 uM ATP over buffer (Cy3 cluster intensity, sum of 5 cycles each) (fold (ratio)); higher = stronger signal-on switching upon ATP binding; sequences stand for … in TCGTCGGCAGCGTCAGATGTGTATAAGAGACAGTTTTTTTTTTTTTTTTTTTTTTTTT…TC; details: aptamer strand: ATP DNA aptamer (quencher-CACCTGGGGGAGTATTGCGGAGGAAGG + anchor), 100 nM annealed; ATP concentration: 500 uM; one replicate
In short: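 Exposure to 500 uM ATP lasted 15 min at 22 °C before imaging, and a selection-buffer image was taken beforehand, for Cy3-labelled switching-strand clusters on a modified Illumina MiSeq flow-cell annealed to 100 nM quencher-labelled ATP aptamer. Five buffer/ATP cycles were run with NaOH stripping and re-annealing between them. The fluorescence ratio per cluster is summed target-cycle over summed buffer-cycle Cy3 intensity, averaged per switch-domain sequence. Clusters outside 100-1000 RFU were excluded.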

Sequence | switch fluorescence ratio
TGAATGAAAA | 1
TGAATGCTCT | 1.03
TGAATGTAGG | 0.999
TGAATTCCGT | 0.981
TGAATTTTGC | 1.21
TGACAACTGA | 0.976
TGACAATGCA | 1.03
TGACACAAAA | 1.04
TGACAGAAGC | 1.02
TGACATCAAA | 1.01
TGACATTAGG | 0.993
TGACCCGAGG | 1.05
TGACCGGTAG | 1.04
TGACCTCGCC | 1.41
TGACCTCGTA | 0.994
TGACCTTAGC | 1.11
TGACCTTTTG | 0.988
TGACGAACAT | 1.3
TGACGAAGCT | 1.19
TGACGACACA | 1.64
TGACGGAAAC | 1.8
TGACGGATAG | 0.968
TGACGTAAGA | 1.2
TGACGTTAGG | 0.959
TGACGTTGCA | 1.03
TGACGTTTAG | 1.04

Sequence | switch fluorescence ratio
TGACTACTCT | 1.02
TGACTCAACT | 1.05
TGACTCTGCG | 1.1
TGACTGCGGA | 1.24
TGACTGTAGG | 1.02
TGAGAAAAT | 1.02
TGAGAAGTTC | 0.985
TGAGAATGCG | 0.999
TGAGACCCGC | 1.04
TGAGACGATT | 0.955
TGAGACGTTC | 1.03
TGAGAGTTGT | 1
TGAGATGTGT | 1.15
TGAGATTGCA | 1.05
TGAGCAAATT | 1.06
TGAGCCACCC | 0.966
TGAGCCGCAT | 1.21
TGAGCCGGGG | 1.01
TGAGCCTTGC | 0.985
TGAGCGAACA | 0.988
TGAGCGCATG | 1.03
TGAGCGGGG | 0.983
TGAGCTATCG | 0.974
TGAGCTTC | 1.07
TGAGCTTGTG | 1.01
TGAGGAGCGT | 0.998

Sequence | switch fluorescence ratio
TGAGGGACAA | 1
TGAGGGATCG | 1.08
TGAGGGATTG | 0.97
TGAGGGGGCA | 1.04
TGAGGGTCCA | 1.03
TGAGTGATG | 0.968
TGAGTTCCGA | 1.03
TGAGTTGCCC | 0.99
TGATAAATTC | 0.971
TGATACATGA | 1.03
TGATACCACG | 1.14
TGATACGAGA | 1.02
TGATACTCAG | 1.1
TGATAGCCCC | 1.07
TGATAGCCGG | 1.02
TGATATACCA | 1.05
TGATCAGCAT | 1.25
TGATCATGTG | 1.01
TGATCCACAG | 1.05
TGATCCATG | 0.991
TGATCCCTAC | 1.12
TGATCGAATT | 0.997
TGATCGTACT | 1.02
TGATCGTCTA | 1.01
TGATCTACTA | 0.99
